The record followed here is PubChem BioAssay AID1745853 (National Center for Advancing Translational Sciences (NCATS), 2022).

Common to all, as to assay: Primary Screen for Target Class Profiling of Small Molecule Inhibitors of Methyltransferases
In assay [1] the target is Glycine N-methyltransferase (Homo sapiens) (UniProt Q14749). To be noted: purified enzyme, MTase-Glo SAH luminescence; measured here: GNMT inhibition; at 40 µM; stronger effect = lower value. An outline of the steps:
(§1)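 Each enzyme was assayed with SAM and its substrate. SAH formation detected by MTase-Glo luminescence; single-point 40 uM screen[…].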

Assay [2] deals with Guanidinoacetate N-methyltransferase (Homo sapiens) (UniProt Q14353). To be noted: purified enzyme, MTase-Glo SAH luminescence; measured here: GAMT inhibition; at 40 µM; stronger effect = lower value. An outline of the steps:
as §1

Assay [3] has as its target Histamine N-methyltransferase (Homo sapiens) (UniProt P50135). To be noted: purified enzyme, MTase-Glo SAH luminescence; measured here: HNMT inhibition; at 40 µM; stronger effect = lower value. The method in brief:
as §1

Assay [4] concerns the target Nicotinamide N-methyltransferase (Homo sapiens) (UniProt P40261). The following applies: purified enzyme, MTase-Glo SAH luminescence; measured here: NNMT inhibition; at 40 µM; stronger effect = lower value. An outline of the steps: as §1
Assay [5] concerns the target Phenylethanolamine N-methyltransferase (Homo sapiens) (UniProt P11086). The following applies: purified enzyme, MTase-Glo SAH luminescence; measured here: PNMT inhibition; at 40 µM; stronger effect = lower value. An outline of the steps:
as §1

The other results are listed elsewhere or left out. Further columns of the screen follow, without active or inactive calls.
% is set by controls: 0 for no effect and ±100 for the full control effect.

As to `CCc1ccccc1NC(=O)N1Cc2ccccc2-n2cccc2C1c1ccccc1` (stereo not given), the activity change, negative = inhibition in assay [1] was determined as 2.72%; in assay [2] it was 0%; in assay [3], 3.8%; in assay [4] it was 2.42%; in assay [5], 2.82%.

Take `CCC1c2cccn2-c2ccccc2CN1C(=O)Nc1cc(Cl)ccc1OC` (stereo not given): the activity change, negative = inhibition in assay [1] came out at 4.56%; in assay [2], 2.64%; in assay [3], 3.67%; in assay [4], 4.75%; in assay [5], 7.47%.

Take `CCc1ccc(C2c3cccn3-c3ccccc3CN2C(=O)Nc2cc(C)ccc2C)cc1` (stereo not given): the activity change, negative = inhibition in assay [1] was 4.24%; in assay [2] it was 1.04%; in assay [3], -0.286%; in assay [4], 2.4%; in assay [5] it was 5.37%.

On to `CCOC(=O)CNC(=O)N1Cc2ccccc2-n2cccc2C1c1ccc(Cl)cc1` (stereo not given), for which the activity change, negative = inhibition in assay [1] is -3.04%; in assay [2], 6.1%; in assay [3], -8.23%; in assay [4], -5.14%; in assay [5], 3.41%.

Turning to `CC1=CC2/C=C(\C)CCC(O)C3OC(C)(C)OC3CC(=O)OC23C(=O)NC(CC(C)C)C3C1C` (stereo not given), the activity change, negative = inhibition in assay [1] is -0.183%; in assay [2] it was 5.39%; in assay [3] it was 1.49%; in assay [4], -9.91%; in assay [5] it was 5.11%.

As to `NC(=O)COc1c(F)cc(SCCNS(=O)(=O)c2ccccc2)cc1F`, the activity change, negative = inhibition is -10.9% in assay [1]; 1.89% in assay [2]; -2.23% in assay [3]; -26.8% in assay [4]; 3.23% in assay [5].

Regarding `CCCNC(=O)N1Cc2ccccc2-n2cccc2C1c1ccccc1` (stereo not given), the activity change, negative = inhibition is 3.27% in assay [1]; 7.62% in assay [2]; -3.05% in assay [3]; -5.9% in assay [4]; 1.91% in assay [5].

With `CC(C)c1ccc(C2c3cccn3-c3ccccc3CN2C(=O)Nc2ccc3c(c2)OCCO3)cc1` (stereo not given), the activity change, negative = inhibition in assay [1] is -5.42%; in assay [2], -1.3%; in assay [3], 1.26%; in assay [4], -2.19%; in assay [5] it was -1.73%.

Consider `CCCN1CCC[C@H](c2cccc(O)c2)C1`, for which the activity change, negative = inhibition in assay [1] was 9.33%; in assay [2], 12%; in assay [3], -12.8%; in assay [4], -2.13%; in assay [5], 4.17%.

In the case of `O=C(Nc1ccccc1)N1Cc2ccccc2-n2cccc2C1c1cccc(Cl)c1` (stereo not given), the activity change, negative = inhibition in assay [1] was determined as 11.2%; in assay [2] it was 1.08%; in assay [3], 2.82%; in assay [4] it was 4.54%; in assay [5], 8.31%.

For `Cc1ccc(NC(=O)N2Cc3ccccc3-n3cccc3C2c2ccc(N(C)C)cc2)cc1Cl` (stereo not given), the activity change, negative = inhibition in assay [1] was 3.72%; in assay [2], 0%; in assay [3], -5.39%; in assay [4], 1.16%; in assay [5] it was -6.37%.

Take `Cc1ccc(NC(=O)N2Cc3ccccc3-n3cccc3C2C)c(Cl)c1` (stereo not given): the activity change, negative = inhibition in assay [1] was 5.12%; in assay [2], 0%; in assay [3] it was 4.01%; in assay [4], -2.16%; in assay [5] it was 2.62%.

With `COc1cc(NC(=O)N2Cc3ccccc3-n3cccc3C2c2cccs2)cc(OC)c1` (stereo not given), the activity change, negative = inhibition in assay [1] was 6.79%; in assay [2], 0%; in assay [3] it was 1.33%; in assay [4], -1.18%; in assay [5], 4.25%.

In the case of `O=C(Nc1ccc(Br)cc1F)N1Cc2ccccc2-n2cccc2C1c1cccs1` (stereo not given), the activity change, negative = inhibition in assay [1] was 9.63%; in assay [2] it was 2.95%; in assay [3], 4.88%; in assay [4] it was -5.98%; in assay [5] it was 10.1%.

For `FC(F)(F)c1ccc(N2CCNCC2)nc1Cl`, the activity change, negative = inhibition in assay [1] was 6.27%; in assay [2] it was 4.72%; in assay [3], 2.86%; in assay [4] it was -8.56%; in assay [5] it was 0.507%.

On to `CCOC(=O)c1ccc(-c2ccc(OC(=O)N(C)Cc3cccc(-c4ccncc4)c3)cc2)cc1`, for which the activity change, negative = inhibition in assay [1] is 0.546%; in assay [2], -11.1%; in assay [3], 10.8%; in assay [4] it was -19.4%; in assay [5], -6.16%.

In the case of `COc1cccc(NC(=O)N2Cc3ccccc3-n3cccc3C2c2ccccc2)c1` (stereo not given), the activity change, negative = inhibition was 9.12% in assay [1]; 0% in assay [2]; 2.48% in assay [3]; -0.016% in assay [4]; 6.85% in assay [5].

Turning to `C[C@H](Cc1ccc2c(c1)OC(C(=O)O)(C(=O)O)O2)NC[C@H](O)c1cccc(Cl)c1`, the activity change, negative = inhibition in assay [1] is -3.96%; in assay [2] it was 5.69%; in assay [3], -1.64%; in assay [4], -4.45%; in assay [5], 4.9%.

For the molecule `CCOc1ccc(C2c3cccn3-c3ccccc3CN2C(=O)Nc2ccccc2F)cc1` (stereo not given), the activity change, negative = inhibition was -1.8% in assay [1]; 0.229% in assay [2]; 5.67% in assay [3]; 9.54% in assay [4]; 9.69% in assay [5].

Regarding `CCOc1ccc(C2c3cccn3-c3ccccc3CN2C(=O)Nc2ccccc2C(=O)OC)cc1` (stereo not given), the activity change, negative = inhibition was -0.697% in assay [1]; 1.87% in assay [2]; 4.05% in assay [3]; 2.67% in assay [4]; 0.834% in assay [5].

With `CCC1(c2ccc(N)cc2)CCC(=O)NC1=O` (stereo not given), the activity change, negative = inhibition in assay [1] is 1.59%; in assay [2], 8.73%; in assay [3], 4.67%; in assay [4], -4.04%; in assay [5], 4.61%.

Turning to `c1ccc(-c2ncc3c(n2)C[C@@H]2CC[C@H]3N2)cc1`, the activity change, negative = inhibition in assay [1] is -1.12%; in assay [2] it was -6.88%; in assay [3] it was -5.31%; in assay [4], -5.33%; in assay [5] it was 1.75%.

On to `C[N+]1(C)CCN(c2ccccc2)CC1`, for which the activity change, negative = inhibition in assay [1] was -19.8%; in assay [2], 0.932%; in assay [3] it was -0.795%; in assay [4], -4.95%; in assay [5], 7.12%.

`COc1cccc(CNC(=O)N2Cc3ccccc3-n3cccc3C2c2ccc(C)cc2)c1` (stereo not given): the activity change, negative = inhibition in assay [1] is 9.12%; in assay [2], 0.11%; in assay [3] it was 1.12%; in assay [4] it was 5.61%; in assay [5], 7.1%.

For `CCOc1ccc(C2c3cccn3-c3ccccc3CN2C(=O)Nc2cccc(C)c2)cc1` (stereo not given), the activity change, negative = inhibition in assay [1] was 0.143%; in assay [2], 4.3%; in assay [3], 9.72%; in assay [4] it was 5.25%; in assay [5] it was 6.66%.

With `CO[C@H]1C[C@H](O[C@H]2CC[C@]3(C=O)[C@H]4CC[C@]5(C)[C@@H](C6=CC(=O)OC6)CC[C@]5(O)[C@@H]4CC[C@]3(O)C2)O[C@H](C)[C@H]1O`, the activity change, negative = inhibition in assay [1] is 3.06%; in assay [2] it was 9.49%; in assay [3], 11.9%; in assay [4] it was -3.78%; in assay [5], 7.53%.

With `COC1CC(O[C@H]2CC[C@]3(C)C4CC[C@]5(C)[C@@H](C6=CC(=O)OC6)[C@@H](OC(C)=O)C[C@]5(O)C4CC[C@@H]3C2)OC(C)C1O[C@@H]1O[C@H](CO)[C@@H](O)[C@H](O)[C@H]1O` (stereo not given in full), the activity change, negative = inhibition in assay [1] was -0.544%; in assay [2], -10.1%; in assay [3] it was 5.91%; in assay [4], -16.6%; in assay [5], 4.57%.

As for `N[C@@]1(C(=O)O)CC[C@@H](C(=O)O)C1`, the activity change, negative = inhibition in assay [1] was 7.65%; in assay [2] it was 17%; in assay [3], 12.7%; in assay [4] it was -1.69%; in assay [5] it was 4.23%.

Consider `CSc1ccc(C2c3cccn3-c3ccccc3CN2C(=O)Nc2ccc(C)c(Cl)c2)cc1` (stereo not given), for which the activity change, negative = inhibition in assay [1] turned out to be 4.66%; in assay [2], 0.389%; in assay [3] it was 7.08%; in assay [4] it was 1.26%; in assay [5], 6.4%.

As for `C[C@]12CC[C@H](O)C[C@@H]1CC[C@@H]1[C@@H]2CC[C@]2(C)C(=O)CC[C@@H]12`, the activity change, negative = inhibition in assay [1] is 1.64%; in assay [2] it was 7%; in assay [3] it was 11.7%; in assay [4], -7.54%; in assay [5], 6.33%.
